Source: PubChem BioAssay (Tox21)
Values joined by “and” are separate entries in the source; they are usually repeats but may differ in a detail not shown here. Equal values may be shown once. This list was built around the results that the source calls inconclusive (neither active nor inactive); the mix of calls is not that of the screen. Where the call is inconclusive, the potency comes from a doubtful curve fit. Some structures have more than one record in an assay (separate samples or runs), and their calls can disagree. Active and inactive are the calls of the source. Calls follow the shape of the dose curve; as a rule, active = well fitted curve in the direction sought with a large enough effect in the repeat runs; inconclusive = weak or mixed curves; inactive = no such curve, though single readings can be large; an effect the other way counts as inactive or inconclusive.
% is scaled to controls: 0 for no effect and ±100 for the full control effect; potency is read from the fitted curve at half-maximal effect; tags tell the direction and shape of the fitted curve.

Test: A CellTox Green Cytotoxicity Assay to monitor cytotoxicity in HepG2 cells - 40 hour (AID 1224879); also: nearly all actives have a fitted effect of over 40% in size
Conditions: CellTox Green fluorescence; series mostly up to 76.8 µM
How it was run: (§1)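 Continuous culture of HepG2 cells with a membrane-impermeant DNA dye; rising fluorescence marks dead cells. Compound exposure lasted up to 40 h at 37 C, with reads every 8 h from 0 h.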
For `O=C(O)/C=C/C(=O)O`, the Potency was “inactive”.
For `CC/C=C\CCCCO`, the Potency was inconclusive: 54.9 µM [activator, single point].
For `CC1=C(C/C=C(\C)CCC[C@H](C)CCC[C@H](C)CCCC(C)C)C(=O)c2ccccc2C1=O`, the Potency was “inactive”.
With `O=C1NC(=O)C(c2ccccc2)(c2ccccc2)N1` the Potency was inconclusive: 30.9 µM [activator, partial curve, poor fit] and active: 23.9 µM.
With `c1ccc2c(c1)[nH]c1ccccc12` the Potency was inconclusive: 60.6 µM [activator, single point] and inconclusive: 54.9 µM [activator, single point].

Test: qHTS RealTime-Glo MT Cell Viability Assay in HEK293 cells - 0 hour (AID 1224880); also: nearly all actives have a fitted effect of over 45% in size; as to activity change, negative = cytotoxicity: top concentration of the series differs between compounds
Conditions: RealTime-Glo luminescence; series mostly up to 76.8 µM
How it was run: (§2)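 qHTS format; HEK293 cells with NanoLuc/prosubstrate reagent, 37 C/5% CO2 for 5 h pre-dosing; compounds 23 nL in DMSO; luminescence at each time point reflects viable cells.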
In the case of `CCCCCCCCCCOc1cc2c(=O)c(C(=O)OCC)c[nH]c2cc1OCC`, the activity change, negative = cytotoxicity is reported as inactive: -0.96% [at 6.97 µM].
With `O=C(O)/C=C/C(=O)O` the Potency was “inactive”.
For `O=C(O)/C=C/c1ccccc1`, the Potency was “inactive”.
In the case of `CC1(C)CC(N)CC(C)(C)N1`, the Potency is reported as inconclusive: 61.6 µM [rising, partial curve, poor fit].
With `C/C=C1\C(=O)C[C@H]2[C@@H]3CCC4=CC(=O)CC[C@]4(C)[C@H]3CC[C@]12C` the Potency was inconclusive: 21.4 µM [falling, partial curve].

Test: A CellTox Green Cytotoxicity Assay to monitor cytotoxicity in HEK293 cells - 32 hour (AID 1224881); also: nearly all actives have a fitted effect of over 40% in size
Conditions: CellTox Green fluorescence; series mostly up to 76.8 µM
How it was run: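 Each value comes from one timepoint of a single continuous run in which HEK293 cells with CellTox Green were exposed to compound for up to 40 h at 37 C, dye fluorescence rising with cell death.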
With `NCC[C@H](O)C(=O)N[C@@H]1C[C@H](N)[C@@H](O[C@H]2O[C@H](CN)[C@@H](O)[C@H](O)[C@H]2O)[C@H](O)[C@H]1O[C@H]1O[C@H](CO)[C@@H](O)[C@H](N)[C@H]1O` the cytotoxicity increase was inactive: 0.628% [at 0.29 µM].
For `O=C1NC(=O)C(c2ccccc2)(c2ccccc2)N1`, the Potency was “inactive and active: 19 µM”.
With `c1ccc2c(c1)[nH]c1ccccc12` the Potency was “inactive”.
In the case of `C/C=C1\C(=O)C[C@H]2[C@@H]3CCC4=CC(=O)CC[C@]4(C)[C@H]3CC[C@]12C`, the Potency is reported as inconclusive: 12.1 µM [activator, partial curve, poor fit].

Test: A CellTox Green Cytotoxicity Assay to monitor cytotoxicity in HepG2 cells - 32 hour (AID 1224883); also: nearly all actives have a fitted effect of over 50% in size
Conditions: CellTox Green fluorescence; series mostly up to 76.8 µM
How it was run: as §1
With `CC/C=C\CCCCO` the Potency was inconclusive: 54.9 µM [activator, single point].
For `c1ccc2c(c1)[nH]c1ccccc12`, the Potency was inconclusive: 60.6 µM [activator, single point].
With `Cc1ccc(O)c(C(=O)c2ccccc2)c1` the Potency was “inactive”.

Test: qHTS RealTime-Glo MT Cell Viability Assay in HEK293 cells - 24 hour (AID 1224886); also: nearly all actives have a fitted effect of over 50% in size; as to activity change, negative = cytotoxicity: top concentration of the series differs between compounds
Conditions: RealTime-Glo luminescence; series mostly up to 76.8 µM
How it was run: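 Viability tracked continuously by luminescence as live cells reduce a prosubstrate for NanoLuc; HEK293 cells preincubated 5 h, compound-treated at 37 C, and read at 0, 8, 16, 24, 32 and 40 h.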
For `NCc1ccccc1Sc1ccccc1CO`, the Potency was “inactive”.
For `CCCCCCCCCOS(=O)(=O)O`, the Potency was “inactive”.
With `CC(C)=CCl` the Potency was “inactive”.
For `CC(C)OC(=O)C(C(=O)OC(C)C)=C1SC=CS1`, the Potency was inconclusive: 19 µM [cytotoxic, partial curve].
With `O=C1Nc2ccccc2C1=O` the Potency was inconclusive: 24.3 µM [rising, partial curve].
In the case of `CC1=C(C/C=C(\C)CCC[C@H](C)CCC[C@H](C)CCCC(C)C)C(=O)c2ccccc2C1=O`, the Potency is reported as inconclusive: 21.3 µM [rising, partial curve].
For `C=CC(C)C#N` (stereo not given), the Potency was “inactive”.
With `O=C1NC(=O)C(c2ccccc2)(c2ccccc2)N1` the Potency was inconclusive: 54.9 µM [cytotoxic, single point].
For `c1ccc2c(c1)[nH]c1ccccc12`, the Potency was inconclusive: 27.1 µM [cytotoxic, partial curve, poor fit].
In the case of `CC(C)(C)c1cc(CCC(=O)NCCCCCCNC(=O)CCc2cc(C(C)(C)C)c(O)c(C(C)(C)C)c2)cc(C(C)(C)C)c1O`, the Potency is reported as inconclusive: 21.9 µM [cytotoxic, partial curve, poor fit].
With `C/C=C1\C(=O)C[C@H]2[C@@H]3CCC4=CC(=O)CC[C@]4(C)[C@H]3CC[C@]12C` the Potency was inconclusive: 24.1 µM [cytotoxic, partial curve].

Test: qHTS RealTime-Glo MT Cell Viability Assay in HEK293 cells - 8 hour (AID 1224887); also: nearly all actives have a fitted effect of over 50% in size; as to activity change, negative = cytotoxicity: top concentration of the series differs between compounds
Conditions: RealTime-Glo luminescence; series mostly up to 76.8 µM
How it was run: as §2
With `CC(C)OC(=O)C(C(=O)OC(C)C)=C1SC=CS1` the Potency was inconclusive: 21.3 µM [cytotoxic, partial curve].
In the case of `O=C1Nc2ccccc2C1=O`, the Potency is reported as inconclusive: 21.7 µM [rising, partial curve].
For `COC(=O)c1ccc(C=O)cc1`, the Potency was “inactive”.
In the case of `CC1(C)CC(N)CC(C)(C)N1`, the Potency is reported as “inactive”.
With `Clc1ccc2c(c1)Nc1ccccc1S2` the Potency was inconclusive: 9.52 µM [cytotoxic, partial curve, poor fit].
With `CC(C)(C)c1cc(CCC(=O)NCCCCCCNC(=O)CCc2cc(C(C)(C)C)c(O)c(C(C)(C)C)c2)cc(C(C)(C)C)c1O` the Potency was inconclusive: 21.9 µM [cytotoxic, partial curve].
In the case of `C/C=C1\C(=O)C[C@H]2[C@@H]3CCC4=CC(=O)CC[C@]4(C)[C@H]3CC[C@]12C`, the Potency is reported as inconclusive: 21.4 µM [cytotoxic, partial curve].

Test: qHTS assay to identify small molecule agonists of the sonic hedgehog signaling (Shh) pathway - cell viability counter screen (AID 1259366); also: nearly all actives have a fitted effect of over 50% in size
Conditions: NIH/3T3 Gli1-Luc viability, CellTiter-Fluor, 24 h; series mostly up to 92.4 µM
How it was run: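 Stable Gli1-Luc NIH/3T3 clone, 2,000 cells/well. Compound exposure 24hr at 37C. Read-out: CellTiter-Fluor fluorescence.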
With `O=C(O)C(=O)Nc1cccc(-c2nn[nH]n2)c1` the Potency was “inactive”.
With `c1ccc2c(c1)[nH]c1ccccc12` the Potency was “inactive”.
For `Cc1ccc(O)c(C(=O)c2ccccc2)c1`, the Potency was “inactive”.
With `NC(=O)c1cn(Cc2c(F)cccc2F)nn1` the Potency was “inactive”.
In the case of `C/C=C1\C(=O)C[C@H]2[C@@H]3CCC4=CC(=O)CC[C@]4(C)[C@H]3CC[C@]12C`, the Potency is reported as inconclusive: 9.49 µM [rising, partial curve, poor fit].
